# Test results reported in PubChem BioAssay AID1508642 (National Center for Advancing Translational Sciences (NCATS), 2021).
# In all, about 43,000 compounds went through this assay and about 200 (0.47%) were called active. Roughly 12% stayed inconclusive and do not appear here. Calls follow the shape of the dose curve; as a rule, active = well fitted cell-killing curve with a large enough effect; inconclusive = small, poorly fitted or top-dose-only effect, or effect the other way; inactive = flat fitted curve, though single readings scatter. Some of the results follow.
# Assay: Cell viability qHTS assay in S16 Pmp22-F2sN cells; also: nearly all actives have a fitted effect of over 65% in size
# Conditions: S16 Pmp22-F2sN Schwann cells (luciferase reporters placed in the Pmp22 gene) viability, CellTiter-Glo, 24 h; series mostly up to 57.5 µM; activity change, negative = cytotoxicity: at the top concentration
# Summary of the method: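 Rat S16 Schwann reporter line, 24 h treatment with library compounds delivered at 23 nL per well. Cell viability by CellTiter-Glo luminescence.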
# % is scaled to controls: 0 for no effect and ±100 for the full control effect.
row,SMILES,"activity change, negative = cytotoxicity"
1,COc1cccc(CNC(=O)C2Cc3cc(S(=O)(=O)N4CCCCCC4)ccc3N2C(C)=O)c1 (stereo not given),inactive: -0.965%
2,Cn1nc(C(=O)N2CCN(c3cccc(Cl)c3)CC2)c2c1-c1ccccc1S(=O)(=O)C2,inactive: 3.74%
3,CCc1cc2c(cc3c(=O)n(CC(=O)N4CCC(C)CC4)nc(CC)n32)s1,inactive: -18%
4,COc1ccc(C(=O)COC(=O)c2cc(-c3ccccc3)nc3c(C)cccc23)cc1,inactive: -7.73%
5,O=C1CCc2cc(S(=O)(=O)NCc3ccc(F)cc3)cc3c2N1CC3,inactive: -26.1%
6,Cc1nc2c(-c3ccccc3)c(C)nn2c(C)c1CCC(=O)N1CCN(c2ccccc2)CC1,inactive: 9.68%
7,CCC(=O)N1CCc2cc(Br)cc(S(=O)(=O)N3CCCC(C(=O)NCc4cccc(OC)c4)C3)c21 (stereo not given),inactive: 18.4%
8,CN1C(=O)Cc2cc(S(=O)(=O)CCC(=O)Nc3cccc(C(F)(F)F)c3)ccc21,inactive: -11.3%
9,CC(C)OCCCn1c(SCc2cccc(Br)c2)nc2c(sc3ccccc32)c1=O,inactive: -2.49%
10,COc1ccc2c(Sc3ccccc3)c(C(=O)NCc3cccc(OC)c3OC)[nH]c2c1,inactive: 4.69%
11,CCOC(=O)c1cc(S(=O)(=O)Nc2ccc(OC)c(Cl)c2)[nH]n1,inactive: -5.1%
12,CCOC(=O)C1(C)C=C(Nc2ccc(C(N)=O)cc2)C(=O)N1c1ccccc1 (stereo not given),inactive: 0.0478%
13,COc1ccccc1Oc1nc2c(c(=O)n(C)c(=O)n2C)n1Cc1cccc(Br)c1,inactive: 0.296%
14,COCCNC(=O)c1ccc2c(c1)N(Cc1cccc(Cl)c1)C(=O)c1ccccc1S2(=O)=O,inactive: -8.03%
15,Cc1ccc(OC(=O)c2cc(-c3ccccc3)nc3ccc(C)cc23)cc1,inactive: -2.57%
16,CC(=O)N1c2ccc(S(=O)(=O)NCC3CCC(C(=O)NCCC(C)C)CC3)cc2CC1C (stereo not given),inactive: -27.1%
17,Cc1nc2c(cnn2-c2ccccc2Cl)c(=O)n1-c1ccc(C(C)C)cc1,inactive: 0.572%
18,COc1cc(NC(=O)Cn2ncc3c(=O)oc4ccccc4c32)cc(OC)c1OC,inactive: 6.65%
19,CN(C)S(=O)(=O)N(CC(=O)NCCSCc1ccccc1Cl)c1ccccc1,inactive: -9.54%
20,COc1cccc(-c2nc(SCC(=O)Nc3ccc4c(c3)OCO4)c(-c3ccccc3)[nH]2)c1,inactive: -28.3%
21,CCCc1noc(-c2ccc(N3CCCCC3)c([N+](=O)[O-])c2)n1,inactive: 21%
22,COc1ccc(CCn2cc3c(c2-c2ccccc2Br)c(=O)n(C)c(=O)n3C)cc1OC,inactive: -14.8%
23,Cc1cccc(N2CCN(S(=O)(=O)c3cc(Br)cc4c3N(C(=O)C3CC3)CC4)CC2C)c1 (stereo not given),inactive: 10.4%
24,Cc1ccc(S(=O)(=O)Nc2cc3c(cc2C)n(C)c(=O)c(=O)n3C)cc1,inactive: 9.91%

row,SMILES,"activity change, negative = cytotoxicity"
1,COc1ccc(-c2noc(-c3ccc(NCc4ccc(C)cc4)c([N+](=O)[O-])c3)n2)cc1OC,inactive: 7.42%
2,Cc1ccccc1NC(=O)CSc1nc(-c2ccc(F)cc2)c2cccc(C)c2n1,inactive: 2.22%
3,COc1ccc(-n2nc(C(=O)N3CCC(C)CC3)c3c4ccccc4n(C)c3c2=O)cc1Cl,inactive: 0.68%
4,O=C(Cn1c(=O)n(-c2ccc(F)cc2)c(=O)c2sc3ccccc3c21)N1CCCC1,inactive: 21.7%
5,Cc1cc(NC(=O)N2CC=C(c3c[nH]c4ccccc34)CC2)ccc1Br,inactive: -13.5%
6,Cn1nc(C(=O)NCc2ccccc2)c2c1-c1ccccc1SC2,inactive: -3.87%
7,CCOC(=O)c1sc2ccccc2c1S(=O)(=O)Nc1c(C)cccc1C,inactive: -0.84%
8,Cc1ccc(CSC2=Nc3ccccc3C3=NC(CCC(=O)N4CCN(c5ccccc5)CC4)C(=O)N23)cc1 (stereo not given),inactive: -18.8%
9,CCOC(=O)c1c(N)n(-c2ccc(C)c(C)c2)c2nc3ccccc3nc12,inactive: 6.83%
10,Cc1cc(C)c(NC(=O)Cn2nc3c(cc2=O)CCCC3)c(C)c1,inactive: -10.6%
11,COCCCN1C(=O)N(c2ccccc2)C(=O)C1CC(=O)Nc1ccc(F)cc1 (stereo not given),inactive: -11.4%
12,O=C(Nc1ccc(S(=O)(=O)Nc2ccccc2)cc1)N1CCCC1,inactive: -7.9%
13,COc1ccccc1NC(=O)N1CC(=O)Nc2sc3c(c2C1c1ccccc1)CCCC3 (stereo not given),inactive: 13.7%
14,CCOc1ccc(CC(=O)Nc2c(C(=O)c3ccc(F)cc3)oc3ccccc23)cc1OCC,inactive: 7.78%
15,CCOC(=O)c1c(C)oc2nc(C)nc(Nc3cccc(OC)c3)c12,inactive: 5.77%
16,COC(=O)c1ccc(C2Nc3c(C)cc(C)cc3C3C=CCC32)cc1 (stereo not given),inactive: 9.68%
17,Cc1ccccc1CSc1cn(CCNC(=O)c2cccs2)c2ccccc12,inactive: -15.4%
18,COc1ccc(C(CNC(=O)COc2ccc(C)c(C)c2)N2CCCCC2)cc1 (stereo not given),inactive: 1.12%
19,CCC(O)c1nc2ccccc2n1Cc1cccc(Cl)c1 (stereo not given),inactive: 0.486%
20,CCOc1ccc(CNC(=O)C2CCN(S(=O)(=O)c3c(C)noc3/C=C/c3ccc(C)cc3)CC2)cc1OC,inactive: 4.89%
21,Cc1c(CNCc2ccc(Cl)cc2)c(C(=O)O)c(C)n1Cc1ccc(F)cc1,inactive: -5.89%
22,CCOc1ccc(CNS(=O)(=O)c2ccc3[nH]c4c(c3c2)CCCC4)cc1OC,inactive: -21.5%
23,COc1ccc(NC(=O)CSc2nc3nc(C)cc(C)n3n2)cc1,inactive: 2.77%
24,CC(=O)Nc1ccc(NC(=O)CC2Sc3ccccc3NC2=O)cc1 (stereo not given),inactive: -6.37%

row,SMILES,"activity change, negative = cytotoxicity"
1,Cc1ccc(Cl)cc1N1CCN(C(=O)c2cc(S(=O)(=O)N3CCC(C)CC3)cn2C)CC1,inactive: -0.459%
2,COc1cccc(CNC(=O)CCc2nnc3n(C)c(=O)c4sccc4n23)c1,inactive: -2.52%
3,CCCN(CCC)CCCNC(=O)C1CCC(CNS(=O)(=O)c2ccc(NC(C)=O)cc2)CC1 (stereo not given),inactive: 10.5%
4,COc1ccc(NC(=O)Cn2c(CCC(=O)O)ccc2-c2ccccc2)cc1Cl,inactive: 0.698%
5,COc1ccc(CNC(=O)Cn2ccc3cc(S(=O)(=O)N4CCCCCC4)ccc32)cc1OC,inactive: -23.3%
6,COc1cccc(-c2cn3c(n2)sc2cc(C(=O)NCc4cccs4)ccc23)c1,inactive: -1.46%
7,COc1ccc2oc(=O)cc(CN3CCN(C(=O)c4ccccc4F)CC3)c2c1,inactive: -12.6%
8,CCS(=O)(=O)N1CCc2cc(C(=O)N3CCN(c4cccc(C(F)(F)F)c4)CC3)ccc21,inactive: -13.4%
9,Cc1ccc(NC(=O)C(=O)NCC(c2cccnc2)N2CCOCC2)cc1C (stereo not given),inactive: 1.74%
10,CCc1ccc(OC(=O)CSc2nnc(-c3ccc4c(c3)OCO4)o2)cc1,inactive: 2.61%
11,CCn1c(CN2CCC(C)CC2)nc2cc(NC(=O)c3ccccc3[N+](=O)[O-])ccc21,inactive: 9.35%
12,Cc1ccc(C)c(Cn2c(=O)c3c(nc4n3CCN4c3ccc(F)cc3)n(C)c2=O)c1,inactive: 6.37%
13,CCOC(=O)c1c(C)[nH]c(CCC(=O)NCCCN2CCN(c3cccc(Cl)c3)CC2)c1C,inactive: -25.5%
14,CCOc1ccc(-n2c(Cc3ccccc3)nnc2SCc2nc(-c3ccccc3C)no2)cc1,inactive: 9.72%
15,CC(=O)NCCNC(=O)CCCc1nnc2n(CCC(C)C)c(=O)c3sccc3n12,inactive: 3.04%
16,Fc1cccc(-c2nc(-c3ccncc3)no2)c1,inactive: -1.8%
17,Cc1ccc(C(=O)c2oc3ccccc3c2NC(=O)c2cc(=O)c3ccccc3o2)cc1,inactive: 5.24%
18,CCOCCCNC(=O)C(c1ccc(OC)cc1)N(Cc1cccs1)C(=O)c1ccc(NC(C)=O)cc1 (stereo not given),inactive: -13.6%
19,Cn1c(=O)oc2cc(S(=O)(=O)CCC(=O)NCc3ccccc3)ccc21,inactive: 5.11%
20,CCOc1ccc(N2CC(c3nc(-c4cc(OC)c(OC)c(OC)c4)no3)CC2=O)cc1 (stereo not given),inactive: 4.74%
21,CCOc1ccc(N(C)S(=O)(=O)c2ccc3c(c2)C(C)(C)C(=O)N3C)cc1,inactive: 2.79%
22,Cc1ccc(C)c(NC(=O)C2CCCN(S(=O)(=O)c3c(C)noc3/C=C/N(C)C)C2)c1 (stereo not given),inactive: 3.06%
23,CCOC(=O)c1c(C)oc2nc(C)nc(NCC3CCN(Cc4ccc(Cl)cc4)CC3)c12,inactive: 21%
24,CC(=O)OCC#CCSc1nnc(-c2cccc(Br)c2)o1,inactive: 10.2%

row,SMILES,"activity change, negative = cytotoxicity"
1,CCN(c1ccccc1)S(=O)(=O)c1nnc(NC(=O)COc2ccc(OC)cc2)s1,inactive: 2.46%
2,COCCNC(=O)C1CCN(S(=O)(=O)c2ccc3c(c2)CCCN3C(C)=O)CC1,inactive: 1.51%
3,CCOC(=O)c1[nH]c(C)c(CCC(=O)N2CCN(c3ccccc3)CC2)c1C,inactive: -1.6%
4,COc1ccc(-c2nc3n(n2)C(c2ccc(OC)cc2)C(C(=O)Nc2cccnc2)=C(C)N3)cc1 (stereo not given),inactive: 22.4%
5,COc1cccc(N2CC(NC(=O)c3ccc(S(=O)(=O)N4CCCC4)cc3)CC2=O)c1 (stereo not given),inactive: -1.93%
6,O=C(NC1CCCC1)c1c[nH]c2ccc(S(=O)(=O)Nc3cccc(C(F)(F)F)c3)cc2c1=O,inactive: 12.8%
7,Cc1ccc(-c2noc(COc3ccc(Br)c(C)c3)n2)cc1,inactive: -8.26%
8,O=C(C1CCC(CNS(=O)(=O)c2ccc(Br)s2)CC1)N1CCN(c2ccccc2)CC1 (stereo not given),inactive: -1.83%
9,Clc1cccc(CNc2ncnc3c2nc2n3CCCC2)c1,inactive: 1.74%
10,Cc1nnc(SCc2cc(=O)n3c(C)cccc3n2)s1,inactive: -7.4%
11,COc1ccc(-n2ncc3c(N4CCN(c5cccc(C)c5)C(C)C4)ncnc32)cc1 (stereo not given),inactive: 38.6%
12,O=C(Cn1c(=O)n(Cc2ccc3c(c2)OCO3)c(=O)c2ccccc21)Nc1cccc(Cl)c1,inactive: 13.2%
13,Cc1c(C(=O)N2CCCC2)oc2c1-c1nn(CC(=O)NCc3cccc(Br)c3)cc1CC2,inactive: -26.2%
14,NS(=O)(=O)c1ccc(NC(=O)CCn2c(=O)oc3ccccc32)cc1,inactive: 6.66%
15,COc1ccc(Cl)cc1NC(=O)CCc1nc(-c2ccccc2F)no1,inactive: -19.7%
16,COc1ccccc1CNC(=O)C(Cc1ccccc1)NS(=O)(=O)c1ccc2c(c1)oc(=O)n2C (stereo not given),inactive: -16.1%
17,CCOC(=O)c1cccc(NC(=O)CSc2ncc3c(n2)-c2ccccc2N(C)S3(=O)=O)c1,inactive: 3.07%
18,Cc1nn(Cc2noc(C(=O)NCc3ccc(F)cc3)n2)c(C)c1Br,inactive: 1.34%
19,O=C(NCCc1ccccc1)c1ccc2c(c1)N(Cc1ccccc1Cl)C(=O)c1ccccc1S2,inactive: 16.7%
20,COc1ccc(-c2nc3scc(CCNS(=O)(=O)c4ccc(F)cc4F)n3n2)cc1OC,inactive: 9.61%
21,CCc1nnc(NC(=O)CSc2nc3c([nH]c4ccccc43)c(=O)n2-c2cc(C)cc(C)c2)s1,inactive: 1.4%
22,O=C1CC(c2nc3ccccc3n2CCCCOc2ccccc2)CN1c1ccccc1Cl (stereo not given),inactive: -24.2%
23,COc1ccc(CC(=O)Nc2nc3c(s2)CC(C(C)(C)C)CC3)cc1 (stereo not given),inactive: 21.9%
